Source: paper PMC4336329 (PLoS ONE, 2015)
About 14,000 (4.5%) of roughly 310,000 compounds showed an effect of 50% or more. The effect is printed as a negative number. This is one part of the list.

What follows are compounds tested against human ether-à-go-go-related gene (hERG) potassium channel (human, UniProt Q12809) (assay: primary screen, population patch clamp on CHO cells stably expressing hERG).
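Further: peak tail current of the secondary pulse compared with the same well before compound.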

Chain of human ether-à-go-go-related gene (hERG) potassium channel (Q12809 whole entry, looked up): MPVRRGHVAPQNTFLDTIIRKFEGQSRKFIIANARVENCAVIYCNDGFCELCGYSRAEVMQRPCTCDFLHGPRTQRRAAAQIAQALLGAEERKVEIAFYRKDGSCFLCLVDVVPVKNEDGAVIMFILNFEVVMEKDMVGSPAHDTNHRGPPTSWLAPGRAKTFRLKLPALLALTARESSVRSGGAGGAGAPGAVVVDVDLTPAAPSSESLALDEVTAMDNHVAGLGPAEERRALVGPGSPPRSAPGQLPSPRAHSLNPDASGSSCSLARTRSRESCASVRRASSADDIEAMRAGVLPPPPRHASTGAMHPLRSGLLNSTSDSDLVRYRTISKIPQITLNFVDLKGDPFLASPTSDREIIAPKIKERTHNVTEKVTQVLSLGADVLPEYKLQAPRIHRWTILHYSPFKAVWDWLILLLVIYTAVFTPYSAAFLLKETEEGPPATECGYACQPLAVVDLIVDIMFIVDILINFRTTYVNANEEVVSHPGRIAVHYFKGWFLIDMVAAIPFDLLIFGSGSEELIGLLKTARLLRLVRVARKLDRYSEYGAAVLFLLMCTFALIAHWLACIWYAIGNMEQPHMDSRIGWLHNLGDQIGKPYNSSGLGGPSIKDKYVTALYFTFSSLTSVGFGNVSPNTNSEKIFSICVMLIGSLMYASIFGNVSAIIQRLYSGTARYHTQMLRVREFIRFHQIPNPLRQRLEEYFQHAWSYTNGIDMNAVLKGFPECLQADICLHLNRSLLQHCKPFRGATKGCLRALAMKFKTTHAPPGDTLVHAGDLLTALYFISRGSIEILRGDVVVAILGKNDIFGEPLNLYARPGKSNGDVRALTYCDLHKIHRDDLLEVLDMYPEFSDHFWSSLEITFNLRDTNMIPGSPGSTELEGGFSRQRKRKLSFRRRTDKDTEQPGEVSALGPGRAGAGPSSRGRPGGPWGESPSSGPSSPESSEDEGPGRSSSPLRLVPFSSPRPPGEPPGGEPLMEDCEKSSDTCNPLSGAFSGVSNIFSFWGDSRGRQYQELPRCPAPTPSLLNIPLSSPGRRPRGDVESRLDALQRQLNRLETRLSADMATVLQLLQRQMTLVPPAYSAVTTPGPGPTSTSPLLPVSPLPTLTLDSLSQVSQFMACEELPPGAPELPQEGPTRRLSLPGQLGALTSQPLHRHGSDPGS

In order of falling “hERG current change (%, negative = inhibition) at 10uM” value:
1. COc1cccc(-n2c(O)c(C=Nc3c(C)n(C)n(-c4ccccc4)c3=O)c(=O)[nH]c2=O)c1  24.1%
2. CN1CCN(C(=S)Nc2cccc(S(=O)(=O)N(C)C)c2)CC1  21.4%
3. COc1ccc(-n2ccnc(SCC(=O)NC3CCCC3)c2=O)cc1OC  21.2%
4. CCn1cnc2c(NCCc3cccnc3)nc(C#N)nc21  16.5%
5. CCCCn1c(N)c(N(CCOC)C(=O)c2ccc(Cl)c(S(=O)(=O)N3CCCC3)c2)c(=O)[nH]c1=O  14.9%
6. COC(C(=O)Nc1ccnn1C1CCN(Cc2cccc(C)n2)CC1)c1ccccc1 (stereo not drawn)  14.6%
7. O=C(/C=C/c1ccc(F)cc1)NC(=S)NNC(=O)c1cccnc1  13.6%
8. COc1ccc(C(=O)Nc2ccc(NC(=O)c3ccco3)cc2)cc1  11.6%
9. CCOc1ccc(NC(=O)NNC(=O)c2cc3ccccc3cc2O)cc1  11.2%
10. O=C(COc1ccc(Cl)cc1Br)Nc1cccc(S(=O)(=O)N2CCCC2)c1  8.97%
11. CN(C)C(=O)N1CCC(C(=O)NCc2ccccc2)CC1  8.76%
12. CCc1ccc(C(=O)/C=C/Nc2ccc(S(=O)(=O)Nc3onc(C)c3C)cc2)cc1  6.45%
13. COC(=O)c1sc(NC(=O)COc2ccc(OC)cc2)nc1C  6.37%
14. CN1CCN(/N=C/c2cccc(Cl)c2Cl)CC1.Cl  6.09%
15. O=C(Oc1ccc(-c2ccccc2)cc1)N1CCOCC1  5.6%
16. CCN1CCc2c(OCC(=O)N3CCCCC3)cccc2C1=O  5.33%
17. Cc1occc1-c1nnc(SCC(=O)Nc2nc3ccccc3s2)o1  5.03%
18. COc1cc(-c2c(-c3ccsc3)sc3ccccc23)cc(OC)c1OC  4.46%
19. COc1ccc(-c2cc(=O)oc3cc(OC(C)C(=O)NC(Cc4c[nH]c5ccc(O)cc45)C(=O)O)ccc23)cc1 (stereo not drawn)  4.07%
20. CCOc1ccc(S(=O)(=O)N2CCCCCC2)c2ccccc12  3.28%
21. CCOC(=O)C1CCN(C(=O)c2[nH]c3ccc(OC)cc3c2C)CC1  1.55%
22. O=S(=O)(c1cccc2cccc(Cl)c12)N1CCCC1  -2.56%
23. Cc1ccccc1C(=O)NC(=S)Nc1ccccc1N1CCCC1  -2.78%
24. COc1ccc(/C(C)=N/NC(=O)CCC(=O)Nc2ccc(Cl)cc2Cl)c(OC)c1  -3.74%
25. CCOC(=O)C1=C(c2ccccc2)NC(=O)NC1c1cc(Cl)c(O)c(OC)c1 (stereo not drawn)  -7.16%
26. CC(OC(=O)c1ccc(-n2cnnn2)cc1)C(=O)Nc1ccc(F)c(F)c1F (stereo not drawn)  -8.65%
27. COc1cc2c(cc1OC)C(c1ccc([N+](=O)[O-])cc1)NC(=O)C2 (stereo not drawn)  -9.96%
28. Cc1nc(-c2ccc(S(=O)(=O)N3CCCN(CCc4ccccc4)CC3)s2)cs1  -10.6%
29. COc1ccc(OC)c(CCNC(=O)CS(=O)(=O)Cc2nc(-c3ccccc3C)oc2C)c1  -11.4%
30. c1ccc(NC2=Nc3ccccc3CC2)cc1  -12.7%
31. S=C(NCc1ccco1)N1CCN(c2ccccc2Cl)CC1  -17.4%
32. COc1ccc(C(C)=O)cc1COC(=O)CSCC(=O)Nc1ccc(C)cc1  -17.9%
33. CC1CCN(C(=O)c2ccccc2SCC(=O)NCC2CCCCC2)CC1  -22.2%
34. O=C(CSc1nccn1-c1ccccc1)N1CCc2ccccc21  -24.8%
35. O=C(CC1C(=O)NCCN1Cc1ccc(-c2ccccc2)cc1)NCCOc1cccnc1 (stereo not drawn)  -25.9%
36. Cc1cc(C)c2nc(C)cc(N/N=C/c3ccc(O)cc3)c2c1  -33.7%
37. O=S(=O)(c1ccccc1F)N1CCC(Oc2ccc(-n3cnnn3)cc2)CC1  -44.5%
38. CCCn1c(SCC(=O)Nc2cccc(S(=O)(=O)NC3=NCCCCC3)c2)nc2ccccc2c1=O  -44.8%
39. O=C(C1CCN(S(=O)(=O)N2CCC3(CC2)OCCO3)CC1)N1CCC(Cc2ccccc2)CC1  -44.9%
40. O=C(N/C(=C/c1cccc([N+](=O)[O-])c1)C(=O)N1CCCC1)c1ccccc1  -46%
41. CC(=O)c1ccc(OCCNS(=O)(=O)c2ccc(-n3cnnn3)cc2)cc1  -55.3%
42. CC[n+]1c(/C=C/C=C/N(C(C)=O)c2ccccc2)sc2ccccc21.[I-]  -69.8%
